# In all, about 270,000 compounds went through this assay and about 5,800 (2.1%) were called active. Inconclusive means that the source gave no clear call. Such entries were picked first, then a sample of the others. Calls follow the shape of the dose curve; as a rule, active = well fitted inhibition curve with a large enough effect; inconclusive = small, poorly fitted or top-dose-only effect; inactive = flat fitted curve, though single readings scatter. Potencies of inconclusive entries are doubtful fits and often do not repeat.
# Target: Microtubule-associated protein tau (Homo sapiens) (UniProt P10636)
# Experiment: qHTS for Inhibitors of Tau Fibril Formation, Thioflavin T Binding; also: nearly all actives have a fitted effect of over 55% in size
# Conditions: recombinant tau K18 P301L, heparin-induced fibrillization, ThT fluorescence; series mostly up to 57.4 µM
# Method in brief: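 Fibril formation assay: tau K18 P301L at 15 uM with trace Alexa 594 label, heparin inducer 20 uM, pH 7 sodium acetate buffer, 37 C for 6 hr; endpoint ThT signal.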
# Potency is read from the fitted curve at half-maximal effect; tags tell the direction and shape of the fitted curve.
# UniProt P10636, sequence (P10636 whole entry, looked up): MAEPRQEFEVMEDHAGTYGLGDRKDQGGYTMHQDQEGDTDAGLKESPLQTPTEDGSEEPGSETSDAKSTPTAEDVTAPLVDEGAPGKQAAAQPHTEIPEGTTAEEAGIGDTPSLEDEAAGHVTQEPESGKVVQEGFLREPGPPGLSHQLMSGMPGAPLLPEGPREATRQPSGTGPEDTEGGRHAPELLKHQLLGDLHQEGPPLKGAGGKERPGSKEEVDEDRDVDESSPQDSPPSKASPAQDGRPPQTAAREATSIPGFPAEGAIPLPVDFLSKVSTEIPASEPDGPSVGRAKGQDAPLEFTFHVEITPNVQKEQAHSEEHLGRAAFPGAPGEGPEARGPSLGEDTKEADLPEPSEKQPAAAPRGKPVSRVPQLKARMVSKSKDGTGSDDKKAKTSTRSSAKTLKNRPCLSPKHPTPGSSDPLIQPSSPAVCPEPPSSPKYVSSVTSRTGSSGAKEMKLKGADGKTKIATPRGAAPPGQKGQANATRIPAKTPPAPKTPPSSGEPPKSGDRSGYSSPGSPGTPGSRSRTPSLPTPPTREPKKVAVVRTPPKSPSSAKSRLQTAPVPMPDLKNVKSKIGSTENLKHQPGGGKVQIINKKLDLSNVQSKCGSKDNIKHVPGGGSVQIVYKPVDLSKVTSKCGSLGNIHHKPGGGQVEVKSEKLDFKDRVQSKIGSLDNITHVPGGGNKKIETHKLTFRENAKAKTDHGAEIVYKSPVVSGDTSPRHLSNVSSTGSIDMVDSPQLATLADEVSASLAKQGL
row,SMILES,Potency
1,S=c1[nH]nc(-c2cc(-c3ccccc3)n[nH]2)n1/N=C/c1ccccc1,"inconclusive: 6.31 µM [inhibitor, full curve]"
2,O=C(Nc1ncccn1)c1cc([N+](=O)[O-])cc([N+](=O)[O-])c1,inactive
3,Cc1cc(C)n(-c2nc(SCC(=O)O)c3c4c(sc3n2)COC(C)(C)C4)n1,inactive
4,CSc1nnc(C(C)(C)C)c(=O)n1/N=C/c1c(O)ccc2ccccc12,inactive
5,CC(=O)Nc1ccc(NC(=O)Cc2sc(-c3cccnc3)nc2-c2ccc(C)cc2)cc1,"inconclusive: 20 µM [inhibitor, single point]"
6,COc1ccc(-c2cc(C)no2)cc1S(=O)(=O)N1CCc2ccccc21,"inconclusive: 12.6 µM [inhibitor, partial curve]"
7,C/C(=N/NC(=O)c1cccc(C)c1)c1c(O)cc(C)oc1=O,"inconclusive: 14.1 µM [inhibitor, partial curve]"
8,CN(C)CC/C=C1/c2ccccc2Sc2c(O)cc(Cl)cc21,inactive
9,Cc1ccc(Cl)cc1NC(=O)Nc1nnc(N(C)Cc2ccccc2)s1,"inconclusive: 35.5 µM [inhibitor, single point]"
10,O=C(O)Cn1cc(/C=C2/NC(=O)N(c3ccc(Cl)cc3)C2=O)c2ccccc21,"inconclusive: 15.8 µM [inhibitor, partial curve]"
11,N#Cc1ccc(CS(=O)(=O)c2nnnn2C2CCCCC2)cc1,inactive
12,CNC(=O)C1CCC(Cn2c(=O)c3sccc3n(CC(=O)Nc3ccc(C)c(C)c3)c2=O)CC1 (stereo not drawn),"inconclusive: 39.8 µM [activator, single point]"
13,Cc1c(C)n(C(=O)CN2CCN(c3ccccn3)CC2)c2ccccc12,"inconclusive: 25.1 µM [inhibitor, single point]"
14,COc1ccc(N=C(C)C2=C(O)c3ccccc3C2=O)cc1,"inconclusive: 17.8 µM [inhibitor, partial curve]"
15,CNc1ccccc1C(C)(C)c1cc(-c2cccc(Br)c2)no1,"inconclusive: 31.6 µM [inhibitor, partial curve]"
16,CS(=O)(=O)C1=NSC2=NC(=O)/C(=C\c3ccc(-c4ccccc4)o3)C(=N)N21,"inconclusive: 8.91 µM [inhibitor, full curve]"
17,O=C(CSc1nnc(-c2cc3ccccc3cc2O)n1Cc1ccco1)N1CCc2ccccc2C1,inactive
18,CCC(c1nnnn1C(C)(C)CC)N(CCCO)Cc1cc2cc(C)cc(C)c2[nH]c1=O (stereo not drawn),"inconclusive: 17.8 µM [inhibitor, partial curve]"
19,O=C(CNCC1CCCO1)NCc1ccco1 (stereo not drawn),inactive
20,COc1ccc(N(C(=O)COc2ccc(F)cc2)S(=O)(=O)c2ccc(C)cc2)cc1,"inconclusive: 35.5 µM [inhibitor, single point]"
21,N#CC1=C2SCC(O)(c3ccccc3)N2C(=O)CC1c1ccccc1F (stereo not drawn),"inconclusive: 15.8 µM [inhibitor, partial curve]"
22,COC(=O)[C@@]1(Cc2ccccc2)[C@H]2c3cc(C(=O)N4CCCC4)n(Cc4ccc(OC)c(OC)c4)c3C[C@H]2CN1C(=O)c1ccccc1,"inconclusive: 39.8 µM [inhibitor, single point]"

row,SMILES,Potency
1,O=c1oc2ccccc2cc1-c1cn(-c2ccccc2)c(=S)[nH]1,"inconclusive: 15.8 µM [inhibitor, partial curve]"
2,CCN(CC)c1ccc(/C=N/NC(=O)C(O)c2ccccc2)cc1 (stereo not drawn),"inconclusive: 39.8 µM [inhibitor, single point]"
3,Cc1ccc(OCCCCn2nnc3sc4c(c3c2=O)CCCC4)cc1,"inconclusive: 12.6 µM [inhibitor, partial curve]"
4,CCc1ccc(NC(=O)C(=O)NCC(c2cccnc2)N2CCN(c3ccc(F)cc3)CC2)cc1 (stereo not drawn),inactive
5,Cc1cc2cc(CN(Cc3ccco3)C(=O)NCc3ccccc3)c(=O)[nH]c2cc1C,"inconclusive: 12.6 µM [inhibitor, partial curve]"
6,CC(=O)c1cccc(NC(=O)c2nc(-c3ccccc3)n(-c3cccc(Cl)c3)n2)c1,inactive
7,COCCNC(=O)CC(c1ccccc1)c1ccccc1,inactive
8,CCN(CC)C(=O)CSC1=C(C#N)C(c2ccco2)C(C(=O)OCCOC)=C(C)N1 (stereo not drawn),inactive
9,N=c1oc2ccccc2cc1C(=O)N/N=C/c1ccccc1,"inconclusive: 6.31 µM [inhibitor, partial curve]"
10,CC(=O)N1CCc2nc3sc(C(=O)c4ccc(F)cc4)c(N)c3c(C(F)(F)F)c2C1,active: 4.47 µM
11,Cc1ccc(OCC(=O)Nc2nnc(S(=O)(=O)N3c4ccccc4CC3C)s2)cc1 (stereo not drawn),"inconclusive: 17.8 µM [inhibitor, partial curve]"
12,CCn1c(SCC(N)=O)nnc1-c1cc2c(C)nn(-c3ccccc3)c2s1,"inconclusive: 25.1 µM [inhibitor, single point]"
13,COC(=O)c1ccc2c(=O)n(CCCCCC(=O)N3CCN(c4ccc(F)cc4)CC3)c(=O)[nH]c2c1,"inconclusive: 0.708 µM [inhibitor, full curve]"
14,CC(C)(C)c1ccc(C(=O)Nc2ccc3c(c2)CCCN3C(=O)c2cccs2)cc1,inactive
15,COc1ccc(C(=O)CCN2CCN(c3ccccc3OC)CC2)cc1,"inconclusive: 28.2 µM [inhibitor, single point]"
16,O=C1/C(=C\c2ccc(O)c(O)c2)C(c2ccccc2)=NN1c1ccccc1,"inconclusive: 35.5 µM [inhibitor, single point]"
17,COc1cc(OC)cc(-c2n[nH]c(=S)n2-c2cc(OC)ccc2OC)c1,"inconclusive: 39.8 µM [inhibitor, single point]"
18,CN1/C(=C/C(=S)NC(=O)C2(C)CC2(Cl)Cl)C(C)(C)c2ccccc21 (stereo not drawn),active: 12.6 µM
19,Cc1noc(C)c1CSc1nc2sc3c(c2c(=O)n1C)CCCC3,"inconclusive: 12.6 µM [inhibitor, partial curve]"
20,CCCCN1C(=O)/C(=C(/C#N)C(N)=O)c2ccccc21,active: 20 µM
21,CC(=O)Nc1ccccc1-c1nc2ccccc2nc1OCC(=O)c1ccc(Cl)cc1,"inconclusive: 10 µM [inhibitor, partial curve]"

# — PubChem BioAssay AID1460 (National Center for Advancing Translational Sciences (NCATS), 2008)
